Test results published in ChEMBL document CHEMBL1201862, “PubChem BioAssay data set” (2004).

Test system: NCI-H322M
Assay: inhibition of tumour cell growth, NCI panel, 48 h

Row | Compound | GI50
1 | CCN(c1ccccc1)[C@H]1C(=O)N(c2ccc([N+](=O)[O-])cc2)[C@H]1c1ccc(OC)cc1 | inactive: 95.7 µM
2 | CCCCc1ccc(N2C(=O)c3cccnc3S2(=O)=O)cc1 | inactive: > 100 µM
3 | Nc1cc(S(N)(=O)=O)ccc1SSc1ccc(S(N)(=O)=O)cc1N | inactive: > 100 µM
4 | CC1Cc2c(Br)nc(N)nc2NC1=O (stereo not given) | inactive: > 100 µM
5 | COc1cc2ccc(C(C)NCC#N)cc2cc1OC (stereo not given) | inactive: > 100 µM
6 | CC1C(NNC(N)=O)Oc2cc3c(cc2C1c1ccccc1O)OCO3 (stereo not given) | inactive: 39.4 µM
7 | COS(=O)(=O)OCCC(NC(=O)OCc1ccccc1)C(=O)OCc1ccccc1 (stereo not given) | inactive: > 100 µM
8 | CCN(CC)CCN(C(=O)C(C)(C)C)c1ccccc1N | inactive: > 100 µM
9 | Nc1cc(=O)n(-c2ccccc2)c(=S)n1-c1ccccc1 | inactive: > 100 µM
10 | CN(C)Cc1nsc(N(C)C)n1 | inactive: > 100 µM
11 | NC(Cc1ccccc1)C(=O)O (stereo not drawn) [DL-PHENYLALANINE] | inactive: > 100 µM
12 | Cc1nc2ccc(F)cc2c(Cl)c1CCCl | inactive: 73.3 µM
13 | Cc1c(/C=C2\CC/C(=C\c3[nH]c(C(=O)OC(C)(C)C)c(C)c3C)C2=O)[nH]c(C(=O)OC(C)(C)C)c1C | inactive: > 100 µM
14 | Cc1cn(C2CC(N=[N+]=[N-])C(CO)O2)c(=O)n(CCCCO)c1=O (stereo not given) | inactive: > 100 µM
15 | Cc1cc(N(CCC#N)CCC#N)ccc1/C=C1/CN(N2C(=O)/C(=C/c3ccc(N(CCC#N)CCC#N)cc3C)N=C2c2ccccc2)C(c2ccccc2)=N1 | inactive: > 100 µM
16 | O=C(CC1(O)C(=O)Nc2ccccc21)c1ccc(F)cc1 (stereo not given) | inactive: > 100 µM
17 | COc1cc(C)c(C)c(OC(=O)c2c(C)c(C)c(OC)c(C)c2OC)c1C | inactive: 54.2 µM
18 | Cc1cccc(C(=O)O)c1C(=O)c1cccc2ccccc12 | inactive: > 100 µM
19 | CC(C)C(/N=C/c1ccccc1O)C(=O)O (stereo not given) | inactive: > 100 µM
20 | Sc1nnc(COc2ccc(Cl)cc2)o1 | inactive: > 100 µM
21 | O=C1c2sc(-c3ccc(Cl)cc3)cc2-n2cccc21 | inactive: > 100 µM
22 | c1ccc(COc2cccc3cccnc23)cc1 | inactive: 93.8 µM
23 | Cc1ncc([N+](=O)[O-])n1CCn1ccnc1[N+](=O)[O-] | inactive: > 100 µM
24 | O=C(CC(=O)C1CCOC1=O)C(=O)Nc1cccc(Cl)c1 (stereo not given) | inactive: > 100 µM

Row | Compound | GI50
25 | O=C(NCCC1CN(S(=O)(=O)C(F)(F)F)c2ccccc21)OCc1ccccc1 (stereo not given) | inactive: > 100 µM
26 | CS(=O)(=O)Nc1ccc(NCc2c[nH]c3ccc4ncccc4c23)cc1 | inactive: 63.5 µM
27 | COc1ccc(OC)c2c(C)ccnc12 | inactive: 40.4 µM
28 | CC(C)CCNC(=O)c1ccc(CNC(=O)/C=C/c2csc(-c3ccccc3)n2)cc1 | inactive: > 100 µM
29 | O=C(N/N=C/c1c(-c2ccccc2)no[n+]1[O-])N1CCOCC1 | inactive: > 100 µM
30 | Cc1ccc(/C=C2/NC(=S)SC2=O)cc1 | inactive: 37.2 µM
31 | COC1OC2=CCC3C(=O)NC(=O)C3C2[C@H](OCc2ccccc2)C1OCc1ccccc1 (stereo not given in full) | inactive: 16.6 µM
32 | Cc1nc2cn3c(c2c(=O)[nH]1)CCCCC3 | inactive: > 100 µM
33 | CCOC(=O)c1c(NC(=O)c2cccs2)sc2c1CCCC2 | inactive: > 66.8 µM
34 | O=C(NN1C(=O)CSC1c1cccc(F)c1)c1ccncc1 (stereo not given) | inactive: > 100 µM
35 | O[C@H]1[C@H]2[C@H](O)C[C@H](CCOCc3ccccc3)CN2C[C@H]1O | inactive: > 100 µM
36 | COCC12CCC(OC)C34C5CC6(O)C(OC)C=C(C5C6OC(=O)c5ccccc5)C(C(OC)C13)C4N(C)C2 (stereo not given) | inactive: > 100 µM
37 | CC(C(=O)O)C1Nc2ccccc2NC1=O (stereo not given) | inactive: > 100 µM
38 | CCOC(=O)/C(C#N)=C\Sc1ccccc1 | inactive: 23.8 µM
39 | Cn1cnc([N+](=O)[O-])c1Sc1nc2cc([N+](=O)[O-])ccc2[nH]1 | inactive: 24.3 µM
40 | Cc1cccc(CNNC(=O)c2cc[n+]([BH2-]C#N)cc2)c1 | inactive: 33.3 µM
41 | O=C1c2ccsc2-c2cccc3cccc1c23.O=C1c2sccc2-c2cccc3cccc1c23 | inactive: 1.35 µM
42 | O=C1c2ccccc2C(=O)N1CCN(CCN1C(=O)c2ccccc2C1=O)Cn1cccn1 | inactive: > 100 µM
43 | COC(=O)[C@]1(C)CCC[C@]2(C)[C@@H](CCC(=O)C(C)C)[C@]3(C=O)O[C@@H]3C[C@H]21 | inactive: 88.1 µM
44 | CC(=O)C(=[N+]=[N-])C(=O)N(C)CCC#N | inactive: > 10 µM
45 | O=[N+]([O-])c1ccc(-n2nc3ccc4c(no[n+]4[O-])c3n2)cc1 | inactive: 19.1 µM
46 | Cc1nc2ccc([N+](=O)[O-])cc2c(=O)n1C(=S)Nc1cccc(Cl)c1 | inactive: 20.7 µM
47 | COCOc1ccc(C2(O)Oc3cc(OCOC)ccc3C2C)c(O)c1 (stereo not given) | inactive: 17.5 µM
48 | O=C(CNC(=O)c1ccccc1)Oc1c(Cl)c(Cl)c(Cl)c(Cl)c1Cl | inactive: 27.2 µM

Row | Compound | GI50
49 | Cc1[nH]c2ccccc2c1/C=N/c1ccc(Oc2ccccc2)cc1 | inactive: 15.6 µM
50 | Cc1ccc(N2CN3OC(=O)N(c4ccccc4)[C@@]3(c3ccccc3)C2)cc1 | inactive: 56 µM
51 | CSc1nc2c(ncn2C2OC(CO)C(O)C(O)C2O)c(=O)[nH]1 (stereo not given) | inactive: > 94.6 µM
52 | Brc1ccc2[nH]cc(-c3csc(-c4c[nH]c5ccccc45)n3)c2c1 | inactive: 3.07 µM
53 | COc1c(O)cc(C(=O)O[C@@H]2Cc3c(O)cc(O)cc3O[C@@H]2c2cc(O)c(O)c(O)c2)cc1O | inactive: 25.7 µM
54 | N#C/C(=C1\OC(=N)C(c2ccccc2)C1=O)c1ccccc1 (stereo not given) | inactive: > 74.5 µM
55 | COc1cc2c3cc1Oc1c(OC)c(OC)cc4c1C(Cc1ccc(O)c(c1)-c1cc(ccc1OC)CC3N(C)CC2)N(C)CC4 (stereo not given) | inactive: 23.9 µM
56 | C[C@@H]1Nc2cc(NC(=O)OCCF)nc(N)c2N=C1c1ccccc1 | active: < 0.0001 µM
57 | O=C(O)C1(c2ccccc2)CCCNCC1 (stereo not given) | inactive: > 100 µM
58 | CC(C)[Si](OC1=CCC[C@H]2NC(=O)[C@@H](Cc3ccccc3)[C@@]12C)(C(C)C)C(C)C | inactive: 11.8 µM
59 | CCC(C(=O)O)c1ccc(OCc2ccccc2)cc1 (stereo not given) | inactive: > 100 µM
60 | CC(C)/C(Cl)=N\OC(NC(=O)P(=O)(c1ccccc1)c1ccccc1)(C(F)(F)F)C(F)(F)F | inactive: 16.1 µM
61 | Cc1nc2cc(N)c(F)cc2[nH]1 | inactive: > 100 µM
62 | Cc1cn(CC2=NCC(C)(C)CN2)c(=O)[nH]c1=O | inactive: > 100 µM
63 | O=Cc1cn(C(=O)c2ccccc2)c2ccccc12 | inactive: > 100 µM
64 | Cc1ccc(S[C@@](C=O)(NC(=O)OCc2ccccc2)C(F)(F)F)cc1 | inactive: 24.9 µM
65 | CCn1nc2c3c(ncn3C(C)(C)O2)c1=O | inactive: > 100 µM
66 | CCOC(=O)C1C(c2ccco2)C2(C#N)C(=N)OC1(C)C2(C#N)C#N (stereo not given) | inactive: > 100 µM
67 | CCOC(=O)c1sc2nc(SC)nc3c2c1NCN3c1ccc2c(c1)OCO2 | inactive: 40.1 µM
68 | N=CCCN(CCC=N)c1ccc(/C=C2\CN(NC(=O)c3ccc(Cl)cc3)C(c3ccccc3)=N2)cc1 | inactive: > 100 µM
69 | COC1CCC(OS(C)(=O)=O)C(CO)O1 (stereo not given) | inactive: > 100 µM
70 | C=CCC1(CN(C)C)CC/C(=C\c2ccc(OC)cc2)C1=O (stereo not given) | inactive: > 100 µM
71 | Cc1sc2nc3n(c(=O)c2c1C)N=CN(c1ccc(Cl)cc1)C3 | inactive: > 100 µM
72 | Nc1c(S(=O)(=O)O)cc(S(=O)(=O)O)c2ccc(/N=N/c3ccccc3)c(O)c12 | inactive: > 100 µM

Row | Compound | GI50
73 | Cc1cccc2c(N)c3cccc(C(=O)NCCN4CCOCC4)c3nc12 | active: 0.439 µM
74 | Cc1[nH]c2ccccc2c1C1Cc2ccccc2N1C(=O)/C=C/C=C/c1ccccc1 (stereo not given) | inactive: > 100 µM
75 | O=[N+]([O-])c1ccc(C(O)(C#CCN2CCCC2)c2ccccc2)cc1 (stereo not given) | inactive: 48.8 µM
76 | CCN(C(=O)N[C@@H](Cc1ccccc1)C(=O)N[C@@H](CC(C)C)C(=O)OC)c1ccccc1 | inactive: 40.9 µM
77 | COC(OC)c1cccc2c1C1(O)CCC3(CC21)OCCCCO3 (stereo not given) | inactive: > 100 µM
78 | COc1ccc(C[C@H]2COC(=O)[C@@H]2Cc2ccc(O)cc2)cc1OC | inactive: > 100 µM
79 | Oc1ccc(-c2cc(-c3cc(-c4ccc(O)cc4)no3)on2)cc1 | inactive: > 93.3 µM
80 | COC(=O)C1CCc2nnc(-c3ccccc3)n21 (stereo not given) | inactive: > 100 µM
81 | C/C(=C\CO)CC/C=C(\C)CNc1ccc([N+](=O)[O-])cc1 | inactive: 1.55 µM
82 | O=C(O)c1cc(Sc2ccc([N+](=O)[O-])c(C(=O)O)c2)ccc1[N+](=O)[O-] | inactive: > 100 µM
83 | Cc1cc(C#N)c(Nc2ccccc2[N+](=O)[O-])s1 | inactive: 22 µM
84 | OC12COc3ccccc3C1Oc1ccccc1C2 (stereo not given) | inactive: > 100 µM
85 | CN1CCc2c3n(c4cc(Br)ccc24)[C@H](O)CCCC31 (stereo not given in full) | inactive: 3.46 µM
86 | c1ccc(-c2cc3[nH]c4ccccc4[nH]c-3cc(-c3ccccc3)nn2)cc1 | inactive: 33.1 µM
87 | Cc1c(/N=N/c2ccc(Cl)cc2)c(C)n(C2OC(CO)C(O)C(O)C2O)c(=S)c1C#N (stereo not given) | inactive: 37.6 µM
88 | CCOC(=O)[C@H]1Nc2ccc(Cl)cc2[C@H]2OCC[C@@H]12 | inactive: > 100 µM
89 | COc1cc(C=C(c2ccc(N(C)C)cc2)c2ccc(N(C)C)cc2)c2ccccc2c1OC | inactive: > 100 µM
90 | COc1cccc(C2c3cc4c(cc3OC(NNS(=O)(=O)c3ccc(C)cc3)C2C)OCO4)c1OC (stereo not given) | inactive: 4.63 µM
91 | O=S1(=O)CCN(Cc2ccccc2)/C1=N\S(=O)(=O)c1ccc(Cl)cc1 | inactive: > 100 µM
92 | COc1ccc(OC)c(NS(=O)(=O)c2ccc3nc(C)n(NS(=O)(=O)c4cc(OC)ccc4OC)c(=O)c3c2)c1 | inactive: > 100 µM
93 | COc1cc(OC)c(/C=C\c2cc(/C=C/c3c(OC)cc(OC)cc3OC)c3ccccc3[n+]2C)c(OC)c1 | inactive: 6.38 µM
94 | CCCCNC(=S)N/N=C/c1cccc(C)n1 | inactive: 56.1 µM
95 | CCCCc1ccc(-n2c3nc(=O)n(C)c(=O)c-3nc3ccccc32)cc1 | inactive: 7.18 µM

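A five-concentration, 48-hour dose response in 96-well plates underlies each endpoint, interpolated linearly between surrounding concentrations. Here, GI50 denotes the concentration required for 50% inhibition of growth.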 Activity calls are given as the source filed them. Cut-off read from the data, not from the text of the source: active = GI50 up to about 1.1 µM and inactive = higher.
